From PubChem BioAssay AID1347073 (National Center for Advancing Translational Sciences (NCATS), 2019)
The whole screen tested about 45,000 compounds, of which about 200 (0.44%) were called active. About 7% were inconclusive and are not listed. The call rests on the fitted dose curve; in most records, active means well fitted activation curve with a large enough effect; inconclusive means small, poorly fitted or top-dose-only effect; inactive means no such curve, though single readings can be large or run the other way. The list shows a part of the results.

Experiment: qHTS of TDP-43 Inhibitors: NCGC Sytravon Library Screen; further: 0% is about no effect; nearly all actives have a fitted effect of over 55% in size
Details: yeast TDP-43 toxicity rescue, BacTiter-Glo growth, 24 h; series mostly up to 46.1 µM; growth rescue (activation): at the top concentration
Procedure, shortened: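 TDP-43-expressing yeast, pregrown in raffinose, seeded at OD600 0.02 in galactose medium with compound for 24 hr at 30 deg C. Growth read by BacTiter-Glo luminescence, so rescue of toxicity appears as activation.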

SMILES | growth rescue (activation)
Cc1ccc(S(=O)(=O)N(CC(O)CN2C(=O)NC(C)(C)C2=O)c2cccc(C)c2)cc1 (centres undefined) | inactive: 26.2%
CC12CCC(C(=O)N3CCC(Cc4ccccc4)CC3)(C(=O)C1=O)C2(C)C (centres undefined) | inactive: -6.38%
COc1cccc2c(N/N=C/c3ccc(O)c(O)c3)cc(C)nc12 | inactive: 13%
O=C(/C=C/c1ccc(S(=O)(=O)N2CCOCC2)cc1)N1CCN(c2ccc(F)cc2)CC1 | inactive: -50.5%
O=C(COC(=O)c1ccco1)NCc1ccc(Cl)cc1Cl | inactive: 37.3%
CCOc1ccc(-c2nnc(SCC(=O)O)n2Cc2ccccc2)cc1 | inactive: 4.87%
Cc1oc(C(=O)O)cc1CSCc1ccoc1C(=O)O | inactive: 4.06%
COc1ccc2nc(NC(=O)CS(=O)(=O)c3ccc(C)cc3)sc2c1 | inactive: 6.3%
COc1ccc(/C=C(\C#N)c2nc3ccccc3[nH]2)cc1O | inactive: 3.54%
CC1CCCC(NC(=O)CSc2n[nH]c(=O)n2Cc2ccccc2)C1C (centres undefined) | inactive: -21.6%
COC(=O)C1C(O)=C(C=NCC(C)N=CC2=C(O)C(C(=O)OC)C(C)(C)CC2=O)C(=O)CC1(C)C (centres undefined) | inactive: 14.9%
Fc1cccc(Cl)c1-c1nnc2ccc(C(F)(F)F)cn12 | inactive: 11.7%
CC1=C(C(=O)OCCBr)C(c2cccc3ccccc23)NC(=O)N1 (centres undefined) | inactive: 12.6%
COc1ccc(NC(=O)[C@@H]2O[C@H](CO)[C@H](O)[C@H](O)[C@H]2O)cc1F | inactive: 6.75%
CCC(C)NC(=O)C1CCN(S(=O)(=O)N2CCOCC2)CC1 (centres undefined) | inactive: 2.36%
Cc1ccnc(NS(=O)(=O)c2ccc(NS(=O)(=O)c3ccc([N+](=O)[O-])cc3)cc2)n1 | inactive: -21.2%
Cc1cc(C)cc(C(=O)NCC(=O)OCc2cc([N+](=O)[O-])cc3c2OCOC3)c1 | inactive: 15.9%
O=C(NNC(=O)C1CC1)c1cc(=O)[nH]c2ccccc12 | inactive: -17.8%
C=CCN(CC=C)C(=O)CN1C(=O)NC(C)(c2ccc3cc(OC)ccc3c2)C1=O (centres undefined) | inactive: 1.12%
CC(=O)Nc1ccc(NC(=O)c2ccccc2Sc2ccc([N+](=O)[O-])cc2Cl)cc1 | inactive: 7.48%
O=C(CN(Cc1ccco1)C(=O)CNS(=O)(=O)c1ccc(Cl)cc1)NCC1CCCO1 (centres undefined) | inactive: 10.8%
COc1ccccc1N1CCN(c2ccnc3cc(Cl)ccc23)CC1 | inactive: 9.24%
Cc1cc2c(cc1C)[n+](C)cn2CC(O)COCC1CC=CCC1 (centres undefined) | inactive: -4.1%
COc1ccc2cc(C)c3nnc(SCC(=O)Nc4cc(OC)c(OC)cc4C(=O)O)n3c2c1 | inactive: -12%
O=C(Nc1ccc(S(=O)(=O)N2CCCCC2)cc1)c1ccco1 | inactive: 12.1%
O=C(NCc1ccccn1)c1coc(=O)c(Br)c1 | inactive: -2.9%

SMILES | growth rescue (activation)
O=C(CCN1C(=O)/C(=C\c2ccccc2)SC1=S)NNC(=O)c1ccccc1O | inactive: 9.76%
CC(C)(C)c1ccccc1OCC(=O)Nc1ccccc1C(=O)NCc1cccnc1 | inactive: -1.02%
CCCN1C(=O)c2ccc(C(=O)Nc3ccccc3C(=O)O)cc2C1=O | inactive: -31.8%
CCOCCCNC(=O)c1ccc(Cn2c(=O)[nH]c3ccsc3c2=O)cc1 | inactive: 12.6%
O=C(CN1C(=O)NC2(CCCCC2)C1=O)Nc1ccc(N2CCOCC2)cc1 | inactive: -9.6%
CN(C)CC1CCCCC1OC(=O)/C=C/c1ccccc1 (centres undefined) | inactive: 4.24%
O=C(NCc1ccc(F)cc1)c1cc(C2CCCCN2C(=O)CCCc2ccccc2)on1 (centres undefined) | inactive: 16.2%
Cc1cccc(C)c1NC(=O)[C@@]1(CC(=O)O)CC(/C=C/c2ccccc2)=NO1 | inactive: -9.23%
CCc1ccc(NC(=O)CN2C(=O)C(c3ccc(F)cc3)=NC2(C)C)cc1 | inactive: 42.1%
CC1(C2CC2)NC(=O)N(CC(=O)Nc2ccc(SC(F)F)cc2)C1=O (centres undefined) | inactive: 8%
CCCc1[nH]n(-c2ccc(F)cc2)c(=O)c1C=Nc1cccc(F)c1 | inactive: 14.3%
CCC(C)C(=O)Nc1ccc([N+](=O)[O-])cc1OC (centres undefined) | inactive: 13.8%
Nc1nc(SCC(=O)c2cccs2)n[nH]1 | inactive: -4.43%
Cc1ccc(NC(=O)COC(=O)CCOc2ccccc2C)cc1 | inactive: 8.7%
Cc1ccc(Cl)c(NC(=O)CSc2cccc[n+]2[O-])c1Cl | inactive: -8.15%
COC(=O)c1cc(OC)c(OC)cc1NCC(=O)Nc1ccc(OC)c(OC)c1 | inactive: -1.23%
O=C(NC1CCCCC1)C1(S(=O)(=O)c2ccc(Cl)cc2)CC1 | inactive: 1.67%
COc1ccc(N(CC(=O)NCCC2=CCCCC2)S(=O)(=O)c2ccccc2)c(OC)c1 | inactive: 16.2%
CCSc1ncc(Cl)c(C(=O)N(Cc2ccc(N(C)C)cc2)Cc2ccco2)n1 | inactive: 9.96%
COC(=O)CNc1nc(-c2ccncc2)nc2ccccc12 | inactive: 35.7%
COc1ccc(-c2noc(-c3ccccc3-c3ccccc3)n2)cc1OC | inactive: 31.2%
COc1ccc(N(CCCN2C(=O)c3cccc4cccc(c34)C2=O)C(=O)c2ccncc2)cc1 | inactive: 5.96%
COc1c(/C=N/NC(=O)c2ccccc2O)c(CCN(C)C(C)=O)cc2c1OCO2 | inactive: 17.1%
CCCS(=O)(=O)NC(=O)C1(C)CCN(C(=O)Cc2ccc3ccccc3c2)C1 (centres undefined) | inactive: -9.44%
CCn1c(SCc2nc3scc(-c4ccccc4)c3c(=O)[nH]2)nnc1-c1cccs1 | inactive: 17%
COC(=O)N/N=C/c1ccc(OS(=O)(=O)c2ccc(C)cc2)c(OC)c1 | inactive: 3.72%

SMILES | growth rescue (activation)
CCC(CC)=NNc1ccc([N+](=O)[O-])cc1[N+](=O)[O-] | inactive: 4.69%
COc1ccc2oc(C(=O)OCC(=O)/C(C#N)=C(\C)N)c(C)c2c1 | inactive: -19.3%
NS(=O)(=O)c1ccc(CCNC(=O)CN2CCC(Cc3ccccc3)CC2)cc1 | inactive: 5.59%
CN(C)/C=N/c1sc2c(c1C#N)CCCCC2 | inactive: -9.85%
CC(=O)Nc1cccc(NC=C(C#N)C#N)c1 | inactive: -1.34%
Cc1oc(-c2cc(F)ccc2F)nc1CN1CCN(c2cnccn2)CC1 | inactive: 6.02%
CC1CCN(c2ccc(NC(=O)c3ccccc3[N+](=O)[O-])cc2)CC1 | inactive: -19%
CCN1CCN(S(=O)(=O)c2ccc(OC)c3ccccc23)CC1 | inactive: 8.07%
CC(C)[C@H](NC(=O)c1ccc(Cl)cc1Cl)C(=O)NNC(=O)c1ccco1 | inactive: -11.2%
CC(=O)Nc1ccc(S(=O)(=O)N(C)CC(=O)OCC(=O)Nc2ccc3c(c2)OCO3)cc1 | inactive: 2.76%
CCC1CCCCN1C(=O)Nc1cc(Cl)ccc1OC (centres undefined) | inactive: 9.34%
Cc1ccc(Cl)cc1NC(=O)N1CCC2(CC1)Oc1ccccc1C(=O)N2Cc1ccccc1F | inactive: -4.87%
COc1ccc(CC(=O)Nc2ccc(NC(=O)c3ccccc3F)cc2)cc1 | inactive: 2.31%
O=C(CSc1ccccc1C(=O)N1CCN(c2ccc([N+](=O)[O-])cc2)CC1)N1CCCC1 | inactive: 21.1%
COc1ccccc1CNC(=O)C1CCC(CNS(=O)(=O)c2cccs2)CC1 (centres undefined) | inactive: 3.02%
Cc1ccc(OCC(=O)NCCc2nc3ccccc3[nH]2)c(C)c1 | inactive: 21.2%
COC(=O)c1ccc(CNC(=O)c2ccc(S(=O)(=O)N3CCCCCC3)cc2)cc1 | inactive: 4.42%
CC(=O)c1c(C)oc2ccc(N(C(=O)Oc3ccccc3)S(=O)(=O)c3ccccc3)cc12 | inactive: -11.3%
CCCCNC(=O)C1CC(=O)N(CCC(C)C)C1 (centres undefined) | inactive: 17.9%
CN1CCN(NC(=O)c2cc(S(=O)(=O)Nc3ccc(Cl)cc3)ccc2Cl)CC1 | inactive: 33.1%
O=C(N/N=C\C=C\c1ccco1)c1cncc(Br)c1 | inactive: 7.78%
O=C(Cn1cc2c(n1)CCCCC2)Nc1c(F)cc(F)cc1Br | inactive: 16%
O=C(COC(=O)C12CC3CC(CC(C3)C1)C2)Nc1nc2c(F)c(F)c(F)cc2s1 | inactive: 12.8%
O=C(O)c1cc(S(=O)(=O)NC2CCCc3ccccc32)ccc1O (centres undefined) | inactive: 18.8%
CCSc1nc(-c2ccccc2)nc2c1CCCC2 | inactive: 12.3%
NS(=O)(=O)c1cc(C(=O)Nc2ccc3c(c2)CCC3)ccc1Cl | inactive: 14.3%

SMILES | growth rescue (activation)
Cc1ccc(C)c(NC(=O)CSc2sc3c(O)cc(=O)[nH]c3c2C#N)c1 | inactive: 11.9%
O=C(CCc1nc(-c2ccccc2Cl)no1)NC1CCCCC1 | inactive: 23.6%
Cc1ccc(C(=O)N/C(=C\c2ccc(-c3ccccc3[N+](=O)[O-])o2)C(=O)NCCN(C)C)cc1 | inactive: 7.07%
Cc1ccccc1CC1(CO)CCCN(C(=O)CCCN2CCCCC2=O)C1 (centres undefined) | inactive: -0.456%
CCC(C(=O)Nc1ccc(S(=O)(=O)N2CCN(C)CC2)cc1)c1ccccc1 (centres undefined) | inactive: 7.36%
O=C(O)c1csc(N/N=C/c2ccc(Br)cc2)n1 | inactive: 1.92%
CSc1ccccc1NC(=O)CN(C)C(=O)c1cccc(S(=O)(=O)N(C)C)c1 | inactive: -1.11%
CCN(CC)S(=O)(=O)c1ccc(C)c(NC(=O)COc2ccc3c(C)cc(=O)oc3c2)c1 | inactive: 14.6%
OC(CNC1CCCC1)COCCOc1ccc(Br)cc1 (centres undefined) | inactive: 24.2%
COc1ccc(-c2n[nH]c(=S)n2-c2cc(OC)ccc2OC)cc1 | inactive: 8.02%
S=C(Nc1ccc(Cl)c(Cl)c1)NC1CCN(Cc2ccccc2)CC1 | inactive: 10.7%
Cc1ccc2nc(-c3ccc(O)cc3)c(Nc3ccc(Cl)cc3)n2c1 | inactive: 15%
CCCc1cc(=O)[nH]c(SCC(=O)N2CCN(c3ccccc3OC)CC2)n1 | inactive: 7.55%
O=C(CSc1nnc(-c2ccco2)n1-c1ccccc1)Nc1c(Cl)cc(Cl)cc1C(=O)O | inactive: 0.278%
CC(C)(CO)NC(=O)CC1C(=O)NCCN1Cc1ccc(-c2ccccc2)cc1 (centres undefined) | inactive: -6.41%
COc1cc(C=C2C(=O)OC(c3ccccc3)OC2=O)cc(Br)c1O (centres undefined) | inactive: -6.39%
OCCNCc1cc(Br)ccc1OCc1ccc(F)cc1 | inactive: -2.9%
COc1ccc(C(C)NC(=O)C2CCN(CCCc3ccccc3)CC2)cc1OC (centres undefined) | inactive: 0.91%
COc1ccc(N(C)C(=O)Cn2c(=O)oc3ccccc32)c(OC)c1 | inactive: 14.3%
O=[N+]([O-])c1ccc(N2CCN(c3ccccc3O)CC2)cc1 | inactive: 24.8%
COc1ccc(CCNC(=O)C2CC(O)CN2S(=O)(=O)c2ccc(Cl)cc2)cc1OC (centres undefined) | inactive: -22.2%
O=C(c1ccc(S(=O)(=O)N2CCOCC2)cc1)N1CCc2ccccc21 | inactive: 11.9%
CN(C)S(=O)(=O)c1ccc2c(c1)nc(CCC(=O)O)n2C | inactive: 12.8%
O=C(NCCNCc1cccc(Cl)c1)c1ccco1 | inactive: -4.59%
Cc1ccccc1OCC(=O)OCC(=O)NCC1CCCO1 (centres undefined) | inactive: 9.63%
CCOC(=O)C1CCCN(C(=O)c2ccc(OC)c([N+](=O)[O-])c2)C1 (centres undefined) | inactive: -25.2%
